These are yes or no findings as the source states them, for the method shown. In cells and extracts the contact can be indirect. Some results given as binding are weak or reduced against the parent protein; the word gives no strength. For some of these results: Where a sequence is shown, tags or fusion partners need not be part of it.

The chains behind the UniProt entries cited, without tags or fusion partners. Residues count along the entry.
UniProt P47806: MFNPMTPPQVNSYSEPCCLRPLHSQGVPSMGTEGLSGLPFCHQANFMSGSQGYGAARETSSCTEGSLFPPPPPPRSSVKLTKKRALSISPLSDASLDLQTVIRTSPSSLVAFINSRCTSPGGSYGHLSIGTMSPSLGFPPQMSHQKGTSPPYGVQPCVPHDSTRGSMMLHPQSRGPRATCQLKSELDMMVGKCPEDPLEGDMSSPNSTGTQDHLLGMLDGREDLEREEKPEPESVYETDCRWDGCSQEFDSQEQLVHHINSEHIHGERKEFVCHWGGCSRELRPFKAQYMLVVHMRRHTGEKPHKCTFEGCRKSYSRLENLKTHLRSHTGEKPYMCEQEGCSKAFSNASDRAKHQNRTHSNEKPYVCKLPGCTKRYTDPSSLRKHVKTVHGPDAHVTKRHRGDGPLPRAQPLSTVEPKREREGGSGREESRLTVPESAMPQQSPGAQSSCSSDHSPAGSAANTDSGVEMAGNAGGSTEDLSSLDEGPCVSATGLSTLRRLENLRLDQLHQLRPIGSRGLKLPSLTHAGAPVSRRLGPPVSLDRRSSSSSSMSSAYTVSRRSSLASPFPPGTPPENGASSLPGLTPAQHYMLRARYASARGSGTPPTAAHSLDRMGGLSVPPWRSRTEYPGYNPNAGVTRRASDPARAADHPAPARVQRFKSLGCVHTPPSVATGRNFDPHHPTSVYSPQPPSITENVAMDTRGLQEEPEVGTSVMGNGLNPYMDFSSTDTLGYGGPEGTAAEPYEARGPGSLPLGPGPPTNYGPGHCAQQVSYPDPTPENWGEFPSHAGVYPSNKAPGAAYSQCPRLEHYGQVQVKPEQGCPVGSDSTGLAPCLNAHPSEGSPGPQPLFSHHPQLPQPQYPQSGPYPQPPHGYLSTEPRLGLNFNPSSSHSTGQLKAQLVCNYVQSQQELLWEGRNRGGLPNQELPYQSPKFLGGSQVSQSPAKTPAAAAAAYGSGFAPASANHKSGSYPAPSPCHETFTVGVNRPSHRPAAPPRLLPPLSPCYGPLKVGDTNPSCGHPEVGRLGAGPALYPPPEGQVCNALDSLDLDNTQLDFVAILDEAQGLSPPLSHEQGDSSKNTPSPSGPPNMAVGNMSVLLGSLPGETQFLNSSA
UniProt Q0VGT2: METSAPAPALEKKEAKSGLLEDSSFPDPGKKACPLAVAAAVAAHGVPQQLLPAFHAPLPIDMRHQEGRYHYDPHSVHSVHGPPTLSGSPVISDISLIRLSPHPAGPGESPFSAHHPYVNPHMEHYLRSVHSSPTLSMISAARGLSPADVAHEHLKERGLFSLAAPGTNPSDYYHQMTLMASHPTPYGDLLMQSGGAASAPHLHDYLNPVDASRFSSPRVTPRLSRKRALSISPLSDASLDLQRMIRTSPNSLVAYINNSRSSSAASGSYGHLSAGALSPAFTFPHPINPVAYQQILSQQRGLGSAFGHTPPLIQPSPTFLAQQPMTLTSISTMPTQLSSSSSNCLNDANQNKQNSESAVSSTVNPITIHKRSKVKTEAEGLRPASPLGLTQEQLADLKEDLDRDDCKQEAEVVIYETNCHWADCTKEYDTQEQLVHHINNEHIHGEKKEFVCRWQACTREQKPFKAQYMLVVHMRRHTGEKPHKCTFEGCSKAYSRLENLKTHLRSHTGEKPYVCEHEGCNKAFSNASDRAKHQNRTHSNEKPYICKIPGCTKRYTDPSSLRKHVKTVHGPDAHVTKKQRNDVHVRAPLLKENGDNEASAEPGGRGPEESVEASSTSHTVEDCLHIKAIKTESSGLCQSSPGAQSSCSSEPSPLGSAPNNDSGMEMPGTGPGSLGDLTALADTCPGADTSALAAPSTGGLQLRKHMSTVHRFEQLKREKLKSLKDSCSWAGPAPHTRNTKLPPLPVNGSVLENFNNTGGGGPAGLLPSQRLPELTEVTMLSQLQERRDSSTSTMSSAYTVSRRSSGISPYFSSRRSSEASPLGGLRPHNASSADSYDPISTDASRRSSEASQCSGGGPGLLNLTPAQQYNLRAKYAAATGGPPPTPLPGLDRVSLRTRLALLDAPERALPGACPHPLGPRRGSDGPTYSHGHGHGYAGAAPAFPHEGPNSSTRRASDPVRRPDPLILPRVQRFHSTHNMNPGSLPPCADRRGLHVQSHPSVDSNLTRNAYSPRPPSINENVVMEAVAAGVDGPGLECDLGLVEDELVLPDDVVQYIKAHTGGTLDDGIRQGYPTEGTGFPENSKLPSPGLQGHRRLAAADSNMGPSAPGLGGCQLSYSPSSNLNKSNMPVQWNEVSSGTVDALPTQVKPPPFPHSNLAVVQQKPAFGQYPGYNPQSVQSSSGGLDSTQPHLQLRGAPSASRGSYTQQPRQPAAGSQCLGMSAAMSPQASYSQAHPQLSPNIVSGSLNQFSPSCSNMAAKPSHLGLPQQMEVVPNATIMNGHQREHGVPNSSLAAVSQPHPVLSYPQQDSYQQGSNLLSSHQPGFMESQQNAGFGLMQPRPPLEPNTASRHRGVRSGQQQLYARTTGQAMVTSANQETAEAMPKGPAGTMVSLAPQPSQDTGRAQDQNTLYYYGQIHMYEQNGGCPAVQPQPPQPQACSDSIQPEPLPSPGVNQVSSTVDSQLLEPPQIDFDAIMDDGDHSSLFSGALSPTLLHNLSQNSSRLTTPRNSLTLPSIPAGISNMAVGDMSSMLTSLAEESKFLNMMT
UniProt P56726, residues 33-793: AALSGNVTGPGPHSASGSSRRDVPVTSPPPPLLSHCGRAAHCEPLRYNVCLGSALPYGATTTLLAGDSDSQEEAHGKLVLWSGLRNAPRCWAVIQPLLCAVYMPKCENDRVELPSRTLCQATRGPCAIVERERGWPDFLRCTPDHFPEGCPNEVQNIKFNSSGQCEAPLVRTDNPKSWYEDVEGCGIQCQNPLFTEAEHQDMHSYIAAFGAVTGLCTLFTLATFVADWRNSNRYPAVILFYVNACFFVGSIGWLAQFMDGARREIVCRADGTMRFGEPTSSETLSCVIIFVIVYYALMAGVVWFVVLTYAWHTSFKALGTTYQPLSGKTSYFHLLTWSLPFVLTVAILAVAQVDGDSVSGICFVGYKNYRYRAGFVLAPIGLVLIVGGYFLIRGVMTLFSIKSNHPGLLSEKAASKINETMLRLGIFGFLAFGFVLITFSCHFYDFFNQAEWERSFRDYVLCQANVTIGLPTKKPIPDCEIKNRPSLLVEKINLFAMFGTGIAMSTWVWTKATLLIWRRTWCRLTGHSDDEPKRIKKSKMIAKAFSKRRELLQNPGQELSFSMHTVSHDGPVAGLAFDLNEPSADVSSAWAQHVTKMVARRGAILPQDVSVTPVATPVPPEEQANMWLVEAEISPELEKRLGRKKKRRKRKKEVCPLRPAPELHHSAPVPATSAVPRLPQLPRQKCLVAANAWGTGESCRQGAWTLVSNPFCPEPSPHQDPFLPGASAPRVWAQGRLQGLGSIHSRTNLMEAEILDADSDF

The target of experiment [1] is T1, Suppressor of Fused (SuFu), endogenous (mouse (endogenous in C3H10T1/2)) (UniProt Q9Z0P7).
T1 sequence: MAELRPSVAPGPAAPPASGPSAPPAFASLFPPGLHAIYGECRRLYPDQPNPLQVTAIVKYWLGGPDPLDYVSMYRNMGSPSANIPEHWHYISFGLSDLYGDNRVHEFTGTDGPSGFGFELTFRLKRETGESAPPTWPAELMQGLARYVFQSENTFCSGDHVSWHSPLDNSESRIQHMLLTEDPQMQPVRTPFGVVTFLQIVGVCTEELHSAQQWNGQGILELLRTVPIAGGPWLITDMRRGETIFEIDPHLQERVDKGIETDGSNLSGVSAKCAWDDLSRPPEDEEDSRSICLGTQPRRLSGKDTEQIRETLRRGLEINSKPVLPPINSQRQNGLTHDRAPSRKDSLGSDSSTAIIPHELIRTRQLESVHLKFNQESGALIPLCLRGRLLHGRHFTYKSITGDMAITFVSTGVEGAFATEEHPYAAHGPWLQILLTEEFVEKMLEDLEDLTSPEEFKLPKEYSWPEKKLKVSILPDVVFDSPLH
Kind of experiment: co-IP; anti-SuFu immunoprecipitates from total C3H10T1/2 cell lysates, blotted for Gli1 or Gli2; IgG as negative control; cells with or without daRac1, NSC23766 10 μg/ml 24 h, IPA-3 1 μM 24 h, shIFT88.

For a further experiment, the target named is T2, Myc-SuFu (UniProt Q9Z0P7).
T2 sequence: T1 sequence
Description: co-IP; anti-Myc immunoprecipitates from lysates of C3H10T1/2 cells transfected with the indicated plasmids (Myc-SuFu, HA-Gli1, KIF3A phosphomimetic mutants) and cultured with NSC23766 10 μg/ml 48 h, blotted for HA.

Experiment [2] addresses T3, Vav2, endogenous (mouse (endogenous in C3H10T1/2)) (UniProt Q60992).
T3 sequence: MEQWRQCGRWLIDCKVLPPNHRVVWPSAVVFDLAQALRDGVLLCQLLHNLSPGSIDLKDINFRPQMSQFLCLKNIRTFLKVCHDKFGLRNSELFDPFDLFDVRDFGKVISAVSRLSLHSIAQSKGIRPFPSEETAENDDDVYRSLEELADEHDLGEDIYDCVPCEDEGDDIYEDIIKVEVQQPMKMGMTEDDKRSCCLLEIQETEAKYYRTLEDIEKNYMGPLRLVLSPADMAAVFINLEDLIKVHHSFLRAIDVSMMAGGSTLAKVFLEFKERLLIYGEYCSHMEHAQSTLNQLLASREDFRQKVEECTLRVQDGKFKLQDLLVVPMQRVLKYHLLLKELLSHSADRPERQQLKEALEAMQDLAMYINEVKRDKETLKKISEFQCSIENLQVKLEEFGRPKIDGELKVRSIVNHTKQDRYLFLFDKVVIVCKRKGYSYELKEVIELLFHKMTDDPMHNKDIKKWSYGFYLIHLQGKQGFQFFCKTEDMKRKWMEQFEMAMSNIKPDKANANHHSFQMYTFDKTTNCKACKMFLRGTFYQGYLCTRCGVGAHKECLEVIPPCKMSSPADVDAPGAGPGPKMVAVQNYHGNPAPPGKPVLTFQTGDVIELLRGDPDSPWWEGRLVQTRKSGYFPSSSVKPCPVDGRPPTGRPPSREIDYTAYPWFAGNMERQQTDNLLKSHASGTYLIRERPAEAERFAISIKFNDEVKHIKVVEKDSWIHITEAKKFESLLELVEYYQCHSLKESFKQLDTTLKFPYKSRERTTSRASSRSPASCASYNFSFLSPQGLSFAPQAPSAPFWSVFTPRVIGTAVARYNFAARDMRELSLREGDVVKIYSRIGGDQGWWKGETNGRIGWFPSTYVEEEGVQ
Description: co-IP; endogenous proteins; anti-Vav2 or anti-Smo immunoprecipitates from total C3H10T1/2 cell lysates, blotted for Smo, Vav2 or phospho-Vav2; cells with or without N-Shh 100 ng/ml 24 h; IgG as negative control.

Experiment [3] concerns the target T4, Myc-tagged N-terminus of Vav2 (Myc-Vav2-ΔC, aa 1-531) (UniProt P52735).
T4 sequence: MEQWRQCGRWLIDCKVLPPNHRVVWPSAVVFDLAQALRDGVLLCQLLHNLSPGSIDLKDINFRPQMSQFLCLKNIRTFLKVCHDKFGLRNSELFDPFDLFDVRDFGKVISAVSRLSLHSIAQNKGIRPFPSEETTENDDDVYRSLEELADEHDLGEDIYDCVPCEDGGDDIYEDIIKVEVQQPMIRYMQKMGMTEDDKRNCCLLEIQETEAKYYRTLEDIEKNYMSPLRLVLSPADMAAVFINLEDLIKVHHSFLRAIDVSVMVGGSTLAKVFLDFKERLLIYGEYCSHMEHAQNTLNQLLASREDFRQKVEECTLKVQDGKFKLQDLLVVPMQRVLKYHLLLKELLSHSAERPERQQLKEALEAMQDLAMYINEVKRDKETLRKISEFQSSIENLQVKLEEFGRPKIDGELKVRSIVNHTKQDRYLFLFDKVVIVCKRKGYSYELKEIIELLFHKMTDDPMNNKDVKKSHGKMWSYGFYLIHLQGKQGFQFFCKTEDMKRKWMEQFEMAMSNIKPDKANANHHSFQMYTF
Kind of experiment: co-IP; anti-Myc immunoprecipitates from lysates of C3H10T1/2 cells transiently transfected with Myc-Vav2 constructs, blotted for endogenous Smo.

Experiment [4] has as its target T5, Myc-tagged Vav2, full length (Vav2 FL) (UniProt P52735).
T5 sequence: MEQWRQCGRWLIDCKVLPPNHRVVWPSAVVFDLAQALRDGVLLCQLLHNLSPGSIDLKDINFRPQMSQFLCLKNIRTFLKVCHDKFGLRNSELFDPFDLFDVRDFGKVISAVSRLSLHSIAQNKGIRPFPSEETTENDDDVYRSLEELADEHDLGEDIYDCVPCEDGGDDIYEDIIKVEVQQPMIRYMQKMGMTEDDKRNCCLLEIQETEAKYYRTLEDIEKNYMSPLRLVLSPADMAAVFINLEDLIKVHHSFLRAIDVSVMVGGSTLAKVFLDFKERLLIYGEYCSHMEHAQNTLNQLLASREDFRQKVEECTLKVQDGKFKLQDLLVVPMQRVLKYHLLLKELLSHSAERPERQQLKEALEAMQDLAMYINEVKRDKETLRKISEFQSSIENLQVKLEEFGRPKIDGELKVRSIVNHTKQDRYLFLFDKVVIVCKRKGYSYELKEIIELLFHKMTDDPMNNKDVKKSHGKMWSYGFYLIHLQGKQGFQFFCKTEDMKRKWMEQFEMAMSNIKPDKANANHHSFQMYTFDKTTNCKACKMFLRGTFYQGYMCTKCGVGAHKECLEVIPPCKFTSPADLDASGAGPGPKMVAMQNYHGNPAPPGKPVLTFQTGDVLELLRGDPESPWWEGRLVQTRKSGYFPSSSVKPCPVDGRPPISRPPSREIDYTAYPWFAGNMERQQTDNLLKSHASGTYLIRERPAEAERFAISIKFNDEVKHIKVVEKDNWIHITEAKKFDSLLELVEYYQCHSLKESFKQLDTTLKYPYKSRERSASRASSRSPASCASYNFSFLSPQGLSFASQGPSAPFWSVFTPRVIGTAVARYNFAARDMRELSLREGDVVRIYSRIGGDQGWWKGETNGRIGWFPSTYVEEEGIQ
Described as above.

Experiment [5] concerns the target T6, Myc-tagged C-terminus of Vav2 (Myc-Vav2-ΔN, aa 532-877) (UniProt P52735).
T6 sequence: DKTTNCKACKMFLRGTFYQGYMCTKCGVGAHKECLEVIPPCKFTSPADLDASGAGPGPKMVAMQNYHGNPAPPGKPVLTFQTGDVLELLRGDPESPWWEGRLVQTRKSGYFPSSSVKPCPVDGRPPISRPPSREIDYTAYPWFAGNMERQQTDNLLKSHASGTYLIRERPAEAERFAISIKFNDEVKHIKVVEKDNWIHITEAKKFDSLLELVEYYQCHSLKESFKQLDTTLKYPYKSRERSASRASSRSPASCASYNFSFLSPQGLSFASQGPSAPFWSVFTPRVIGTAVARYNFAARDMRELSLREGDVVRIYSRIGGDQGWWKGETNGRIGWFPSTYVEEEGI
Described as above.

For the substance “Gli1, endogenous (from UniProt P47806 1-1111)”, in experiment [1], the binding entry is reported as “binds”.
Turning to “Gli2, endogenous (from UniProt Q0VGT2 1-1544)”, the binding result in experiment [1] is “binds”.
For HA-Gli1 (from UniProt P47806 1-1111), the binding entry with Myc-SuFu is on record as “binds”.
“Smoothened (Smo), endogenous (from UniProt P56726 33-793) (receptor)”: the binding entry in experiment [2] is listed as “binds”; in experiment [3], “no binding”; in experiment [4], “binds”; in experiment [5], “binds”.

The record behind these values is article PMC8771550.
